# Settings: single 2 mL dose, aerosolization, assuming 100% delivery
structure (smiles),measurement,value
C=C1CC/C=C(\C)CC[C@@H]2[C@@H]1CC2(C)C [β-caryophyllene],estimated concentration in the epithelial lining fluid of the lungs,603 µg/mL

# Source: US20230355571A1, “METHOD FOR TREATING VIRAL AND BACTERIAL INFECTION THROUGH INHALATION THERAPY” (priority 2020, published 2023)
